Reference: PubChem BioAssay AID624417 (National Center for Advancing Translational Sciences (NCATS), 2012)
The campaign covered roughly 410,000 compounds. About 6,400 (1.6%) were called active. Inconclusive results, whose numbers are uncertain, are shown with a selection of clear calls. Calls come from the whole dose curve; as a rule, active = well fitted inhibition curve with a large enough effect; inconclusive = small, poorly fitted or top-dose-only effect; inactive = no such curve, though single readings can be large or run the other way. Potencies of inconclusive entries are left out as doubtful fits.

Molecular target: Glucagon-like peptide 1 receptor (Homo sapiens) (UniProt P43220)
Assay: qHTS of GLP-1 Receptor Inverse Agonists (Inhibition Mode); note: nearly all actives have a fitted effect of over 55% in size
Details: HEK293 GLP-1R CRE-luciferase, luminescence, 24 h, GLP-1R form is constitutively active; activity change, negative = inhibition: at 38.3 µM (top of the series) unless noted
Procedure, shortened: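 Cells are plated, allowed 12 hours at 37 deg C, then treated with compounds for 24 hr before luciferase detection reagent is added and luminescence is read after 12 min at room temperature. The HEK293 line carries constitutively active GLP-1R with a cAMP-responsive reporter.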
% is set by controls: 0 for no effect and ±100 for the full control effect; potency is the fitted concentration of half-maximal effect; tags give direction and shape of the fitted curve.

Sequence of UniProt P43220 (P43220 whole entry, looked up): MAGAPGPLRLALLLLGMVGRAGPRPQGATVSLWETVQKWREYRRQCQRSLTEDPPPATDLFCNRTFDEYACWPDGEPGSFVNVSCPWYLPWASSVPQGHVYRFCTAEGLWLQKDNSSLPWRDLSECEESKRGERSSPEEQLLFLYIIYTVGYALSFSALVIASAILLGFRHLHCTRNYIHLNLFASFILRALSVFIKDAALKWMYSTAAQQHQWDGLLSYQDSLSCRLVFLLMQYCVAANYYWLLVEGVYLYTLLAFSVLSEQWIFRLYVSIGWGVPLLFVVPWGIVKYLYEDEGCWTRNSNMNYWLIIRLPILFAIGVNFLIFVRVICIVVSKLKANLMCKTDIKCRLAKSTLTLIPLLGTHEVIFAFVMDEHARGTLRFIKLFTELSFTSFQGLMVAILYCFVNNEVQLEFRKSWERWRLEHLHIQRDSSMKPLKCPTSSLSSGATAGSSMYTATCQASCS

SMILES	activity change, negative = inhibition	Potency
CCN1CCC(N(Cc2ccc3c(c2)OCO3)C(=O)Nc2cc(Cl)ccc2C(=O)OC)CC1	inactive: -17.7%	
C/C(=N/NC(=O)c1ccc(Br)o1)c1ccncc1	inactive: 34.9%	
CCOc1cc(CNCc2cccs2)cc(Br)c1OCC		active: 10 µM
Cc1cc(C(=O)N2CCCC(N3CCN(c4ccc(F)cc4)CC3)C2)c(C)o1 (centres undefined)		inconclusive [inhibitor, single point]
C[C@@H]1CN([C@H](C)CO)S(=O)(=O)c2ccc(C#Cc3ccccc3F)cc2O[C@H]1CN(C)C(=O)c1ccc2c(c1)OCO2		inconclusive [inhibitor, single point]
N=c1oc2ccccc2cc1C(=O)NC1CCCCCC1	inactive: -2.05%	
CCCCC(CC)CNC(=O)C(=O)C1C(=O)Nc2ccccc21 (centres undefined)		inconclusive [inhibitor, partial curve, poor fit]
O=S(=O)(c1ccc(F)c2ccccc12)N1CCCCC1		inconclusive [inhibitor, partial curve, poor fit]
Cc1cccc(NC(=O)C2CCCN(S(=O)(=O)c3cccc4nonc34)C2)c1C (centres undefined)	inactive: 9.46%	
O=C(c1[nH]c(C(F)(F)F)nc1-c1ccccc1)N1CCN(c2ccccn2)CC1		inconclusive [inhibitor, partial curve]
Cc1cc(OCCOCCN(C)CCO)cc(C)c1Cl		inconclusive [inhibitor, partial curve, poor fit]
CN1CCN(NS(=O)(=O)c2ccc(Cl)cc2)CC1	inactive: -3.73%	
CCCCNC(=O)N1CCCC(C(=O)c2cc(C)c(OC)c(C)c2)C1 (centres undefined)		inconclusive [inhibitor, partial curve]
COC1=CC(=O)c2c(ccc3ncnc(N)c23)C1=O		inconclusive [inhibitor, full curve, poor fit]
O=C(Nc1cccc(Oc2ccccc2)c1)C1Cc2c(-c3cccc(F)c3)ccnc2O1 (centres undefined)		inconclusive [inhibitor, single point]
N#C/C(=C\c1ccc(Oc2ccc(C(F)(F)F)cc2[N+](=O)[O-])cc1)c1nc2ccccc2[nH]1		inconclusive [inhibitor, full curve, poor fit]
COc1ccc(OCCN2CCC(C(=O)NC(c3ccsc3)c3ccccc3C)CC2)cc1 (centres undefined)		inconclusive [inhibitor, partial curve, poor fit]
COc1cccc(OCC(=O)N(C)Cc2nc(-c3ccccc3)no2)c1		inconclusive [inhibitor, full curve, poor fit]
Cc1occc(=O)c1OC(=O)Nc1ccc(Cl)c(Cl)c1		inconclusive [inhibitor, partial curve, poor fit]
CC(Nc1ccc(Br)cc1)C(=O)NC(=O)NC1CCCCC1 (centres undefined)		inconclusive [inhibitor, full curve, poor fit]

SMILES	activity change, negative = inhibition	Potency
COc1cc(NC(=O)CN2CCC(C(N)=O)(N3CCCCC3)CC2)c(OC)cc1Cl		inconclusive [inhibitor, partial curve, poor fit]
Cc1ccc(C)c(N2CCN(CCCNC(=O)C3COc4ccccc4C3)CC2)c1 (centres undefined)		inconclusive [inhibitor, single point]
Cc1ccc(N(C(=O)Cn2nnc(-c3cccs3)n2)C(C(=O)NC2CCCC2)c2ccncc2)cc1 (centres undefined)		inconclusive [inhibitor, full curve, poor fit]
COc1ccc(C2CC(c3cccs3)=NN2C(=O)COC(=O)C2CCCCC2)cc1OC (centres undefined)		inconclusive [inhibitor, single point]
O=C1c2cccnc2Oc2ccc(Cl)cc2N1Cc1ccc(F)cc1		inconclusive [inhibitor, partial curve, poor fit]
COc1ccc(NC(=O)c2cc(-c3cc(Cl)ccc3C)n[nH]2)c(OC)c1		inconclusive [inhibitor, single point]
COc1ccc(CNC(=O)CSCc2cccc(Cl)c2)cc1		inconclusive [inhibitor, single point]
Cc1ccc(-n2nc3c(=O)n(CCCC(=O)NCCc4ccccc4C)nc(C)c3c2C)cc1		inconclusive [inhibitor, full curve, poor fit]
Cc1ccc(NC(=O)CSc2nc3ccccc3c3nc(CCn4cncc4C)nn23)cc1F		inconclusive [inhibitor, partial curve]
CCOc1cccc2sc(N(Cc3cccnc3)C(=O)C3CCCCC3)nc12		inconclusive [inhibitor, single point]
Cc1ccc(NC(=O)CSCc2cnn(-c3ccccc3)c2-n2cccc2)c(C)c1		inconclusive [inhibitor, partial curve, poor fit]
Cc1sc2ncnc(N3CCC(C(=O)Nc4cc(S(C)(=O)=O)ccc4Cl)CC3)c2c1C		inconclusive [inhibitor, single point]
Cc1ccc(CCNC(=O)C2CCN(c3nnc(C)c4c(C)n(-c5ccccc5)nc34)CC2)cc1	inactive: 16.8%	
CCCCCCCCOC(=O)c1cc([N+](=O)[O-])c(Sc2ncnc3nc[nH]c23)c([N+](=O)[O-])c1		inconclusive [inhibitor, single point]
CC(=O)Nc1ccc(C(=O)N/N=C/c2ccc(F)cc2)cc1	inactive: 12.2%	
Cc1cc(OC(C)C(=O)N(Cc2ccco2)Cc2ccccc2F)cc(C)c1Cl (centres undefined)		inconclusive [inhibitor, partial curve, poor fit]
CCOC(=O)C1=C(N)OC2=C(C(=O)CC(C)(C)C2)C1C1CCCCC1 (centres undefined)		inconclusive [inhibitor, partial curve, poor fit]
O=C(N/N=C\c1cn(-c2ccccc2)nc1-c1ccccc1)c1ccc2c(c1)OCO2		inconclusive [inhibitor, partial curve]
Cc1ccc(C(C)n2cc(C(=O)NCCN3CCN(C)CC3)nn2)cc1 (centres undefined)		inconclusive [inhibitor, partial curve]
